A lower IC50 marks a more sensitive line; where the fit passes the top or lowest dose, that dose stands as a limit. AUC is the area under the same curve over the 256-fold range up to the top dose, as a fraction: 1 means no effect, lower means more sensitive. For some assays here: An inferred top dose was derived from the fitted curves, not read from the paper. For some assays here: An entry number marks a drug with two screens in the source, which often give different values.
How the values were obtained:
Test in all cases: Viability of human cancer cell lines after 72 h of drug (GDSC screen)
Zibotentan = compound: COc1nc(C)cnc1NS(=O)(=O)c1cccnc1-c1ccc(-c2nnco2)cc1 [Zibotentan]; settings: top dose 20 µM; top dose inferred
Experimental: (§1)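 Human cancer cell lines in 384-well plates, medium with 10% serum, drug for 72 h over a 256-fold dose range (nine 2-fold or five 4-fold steps up to the top dose). Adherent lines were fixed and stained with the nucleic acid dye Syto60, suspension lines read with resazurin; signal relative to control wells, capped at 0 and 100%. One two-parameter sigmoid per drug and line, fitted in a mixed model over all curves with the slope shared within a line.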

ABT-869 = compound: Cc1ccc(F)c(NC(=O)Nc2ccc(-c3cccc4[nH]nc(N)c34)cc2)c1 [ABT-869]; settings: top dose 1.024 µM; top dose inferred
Experimental: as §1

KU-55933 = compound: O=c1cc(-c2cccc3c2Sc2ccccc2S3)oc(N2CCOCC2)c1 [KU-55933]; settings: top dose 10 µM
Experimental: as §1

MPS-1-IN-1 = compound: COc1cc(N2CCC(O)CC2)ccc1Nc1cc(Nc2ccccc2S(=O)(=O)C(C)C)c2cc[nH]c2n1 [MPS-1-IN-1]; settings: top dose 20 µM; top dose inferred
Experimental: as §1

QL-X-138 = compound: C=CC(=O)Nc1cc(-n2c(=O)ccc3cnc4ccc(-c5cn[nH]c5)cc4c32)ccc1C [QL-X-138]; settings: top dose 10.24 µM; top dose inferred
Experimental: as §1

CP466722 = compound: COc1cc2ncnc(-n3nc(-c4ccccn4)nc3N)c2cc1OC [CP466722]; settings: top dose 16 µM; top dose inferred
Experimental: as §1

ABT-888 = compound: C[C@]1(c2nc3c(C(N)=O)cccc3[nH]2)CCCN1 [ABT-888]; settings: top dose 5 µM; top dose inferred
Experimental: as §1

Thapsigargin = compound: C/C=C(/C)C(=O)O[C@H]1C(C)=C2[C@H]([C@@H]1OC(=O)CCCCCCC)[C@@](C)(OC(C)=O)C[C@H](OC(=O)CCC)[C@@]1(O)[C@H]2OC(=O)[C@@]1(C)O [Thapsigargin]; settings: top dose 0.512 µM; top dose inferred
Experimental: as §1

(5Z)-7-Oxozeaenol = compound: COc1cc(O)c2c(c1)/C=C/C[C@H](O)[C@H](O)C(=O)/C=C\C[C@H](C)OC2=O [(5Z)-7-Oxozeaenol]; settings: top dose 10 µM; top dose inferred
Experimental: as §1

CHIR-99021 = compound: Cc1cnc(-c2cnc(NCCNc3ccc(C#N)cn3)nc2-c2ccc(Cl)cc2Cl)[nH]1 [CHIR-99021]
Experimental: as §1

GSK269962A = compound: CCn1c(-c2nonc2N)nc2cnc(Oc3cccc(NC(=O)c4ccc(OCCN5CCOCC5)cc4)c3)cc21 [GSK269962A]; settings: top dose 5 µM; screen: GDSC drug entry 1192; top dose inferred
Experimental: as §1

[1] = top dose 2.56 µM, screen: GDSC drug entry 154
[2] = top dose 10 µM, screen: GDSC drug entry 1241, top dose inferred

Cell Line	AUC (Zibotentan)	IC50 (Zibotentan) [µM]	AUC (ABT-869)	IC50 (ABT-869) [µM]	AUC (KU-55933)	IC50 (KU-55933) [µM]	AUC (MPS-1-IN-1)	IC50 (MPS-1-IN-1) [µM]	AUC (QL-X-138)	IC50 (QL-X-138) [µM]	AUC (CP466722)	IC50 (CP466722) [µM]	AUC (ABT-888)	IC50 (ABT-888) [µM]	AUC (Thapsigargin)	IC50 (Thapsigargin) [µM]	AUC ((5Z)-7-Oxozeaenol)	IC50 ((5Z)-7-Oxozeaenol) [µM]	AUC (CHIR-99021; [1])	IC50 (CHIR-99021; [1]) [µM]	AUC (CHIR-99021; [2])	IC50 (CHIR-99021; [2]) [µM]	AUC (GSK269962A)	IC50 (GSK269962A) [µM]
22RV1 (prostate, adherent)	0.982	> 20	0.968	> 1.02	0.978	> 10	0.713	5.84	0.537	0.829	0.789	9.02	0.982	> 5	0.235	0.00443	0.863	> 10	0.979	> 2.56	0.918	> 10	0.908	> 5
201T (lung adenocarcinoma, adherent)	0.975	> 20	0.98	> 1.02	0.952	> 10	0.896	> 20	0.86	> 10.2	0.802	10.4	0.98	> 5	0.223	0.00391	–	–	0.978	> 2.56	–	–	–	–
5637 (bladder, adherent)	0.989	> 20	0.979	> 1.02	0.954	> 10	0.873	16.1	0.746	2.98	0.783	6.06	0.989	> 5	0.285	0.00845	0.821	5.09	0.989	> 2.56	0.965	> 10	0.84	2.99
23132-87 (stomach, adherent)	0.985	> 20	0.986	> 1.02	0.946	> 10	0.867	19.2	0.732	3.01	0.889	> 16	0.986	> 5	0.475	0.0272	0.76	3.64	0.978	> 2.56	0.945	> 10	0.91	> 5
A375 (melanoma, adherent)	0.991	> 20	0.991	> 1.02	0.927	> 10	0.867	12.9	0.969	> 10.2	0.847	8.79	0.966	> 5	0.156	0.00375	0.042	< 0.0391	–	–	0.837	5.09	0.654	0.764
A427 (non-small cell lung carcinoma, adherent)	0.986	> 20	0.981	> 1.02	0.975	> 10	–	–	0.921	> 10.2	0.825	9.74	0.969	> 5	0.248	0.00597	0.738	3.02	0.986	> 2.56	0.908	> 10	0.866	4.55
A2780 (ovary, semi-adherent)	0.982	> 20	0.979	> 1.02	0.984	> 10	0.749	6.68	–	–	0.711	4.03	0.965	> 5	0.217	0.00456	0.647	1.62	0.983	> 2.56	0.833	6.77	0.8	2.52
AU565 (breast, adherent)	0.978	> 20	0.976	> 1.02	0.933	> 10	0.976	> 20	0.725	3.03	0.835	12.2	0.984	> 5	0.309	0.00872	–	–	0.981	> 2.56	–	–	0.923	> 5
COR-L23 (large cell lung carcinoma, adherent)	0.987	> 20	0.987	> 1.02	0.987	> 10	0.876	18.9	0.615	1.32	0.757	5.37	0.988	> 5	0.284	0.008	0.802	4.75	–	–	–	–	0.94	> 5
H290 (mesothelioma, adherent)	–	–	0.989	> 1.02	0.986	> 10	–	–	0.868	8.05	0.699	3.42	0.989	> 5	0.426	0.0205	0.59	1.08	0.988	> 2.56	0.983	> 10	0.906	> 5
HT-1080 (fibrosarcoma, adherent)	0.989	> 20	–	–	0.969	> 10	0.987	> 20	0.808	4.64	0.905	> 16	0.985	> 5	0.137	0.00278	0.584	1.03	0.985	> 2.56	0.872	7.85	0.585	0.52
IGR-37 (melanoma, adherent)	0.986	> 20	–	–	0.935	> 10	0.897	> 20	0.989	> 10.2	0.986	> 16	0.988	> 5	0.23	0.00574	0.032	< 0.0391	0.988	> 2.56	0.988	> 10	0.892	> 5
KYSE-140 (oesophagus, adherent)	0.982	> 20	0.982	> 1.02	0.926	> 10	0.886	> 20	0.671	2.05	0.662	3.01	0.984	> 5	0.205	0.00373	–	–	0.98	> 2.56	–	–	0.982	> 5
LCLC-97TM1 (large cell lung carcinoma, adherent)	0.98	> 20	0.964	> 1.02	0.93	> 10	0.776	8.72	0.448	0.454	0.566	1.54	0.972	> 5	0.166	0.00271	0.695	2.33	–	–	–	–	0.972	> 5
LK-2 (lung squamous cell carcinoma, adherent)	0.989	> 20	0.985	> 1.02	0.975	> 10	0.893	> 20	0.848	6.96	0.809	7.77	0.989	> 5	0.258	0.00683	0.845	6.63	–	–	–	–	0.683	0.983
MIA-PaCa-2 (pancreas, adherent)	0.981	> 20	0.981	> 1.02	0.883	> 10	0.985	> 20	0.982	> 10.2	0.981	> 16	0.957	> 5	0.25	0.00561	–	–	0.816	1.6	–	–	–	–
NCI-H358 (lung adenocarcinoma, adherent)	0.98	> 20	0.971	> 1.02	0.925	> 10	0.778	9.01	0.562	0.966	0.727	4.81	0.983	> 5	0.2	0.00366	0.76	3.9	–	–	–	–	0.916	> 5
NCI-H647 (non-small cell lung carcinoma, adherent)	0.982	> 20	0.985	> 1.02	0.967	> 10	0.925	> 20	0.55	0.881	0.66	2.84	0.973	> 5	0.232	0.00511	–	–	0.981	> 2.56	–	–	–	–
OCUM-1 (stomach, adherent)	0.986	> 20	0.984	> 1.02	0.984	> 10	0.949	> 20	0.941	> 10.2	0.962	> 16	0.987	> 5	0.316	0.00918	–	–	0.986	> 2.56	–	–	–	–
PC-14 (lung adenocarcinoma, adherent)	0.987	> 20	0.982	> 1.02	0.973	> 10	0.891	18.9	0.763	3.33	0.748	4.68	0.988	> 5	0.298	0.00933	0.828	5.28	–	–	–	–	0.958	> 5
RPMI-7951 (melanoma, adherent)	0.987	> 20	0.964	> 1.02	0.987	> 10	0.847	14.1	0.528	0.76	0.707	3.76	0.986	> 5	0.223	0.00513	–	–	0.898	> 2.56	–	–	0.69	1.05
SCC90 (head and neck, adherent)	–	–	–	–	0.981	> 10	–	–	–	–	0.797	11.5	0.981	> 5	0.429	0.0189	0.808	8.13	0.979	> 2.56	0.971	> 10	0.929	> 5
SK-MEL-5 (melanoma, adherent)	0.983	> 20	0.979	> 1.02	0.921	> 10	0.983	> 20	0.795	5.98	0.912	> 16	0.936	> 5	–	–	0.337	0.199	–	–	0.98	> 10	0.959	> 5
SW48 (large intestine, adherent)	0.987	> 20	0.778	0.414	0.953	> 10	–	–	0.906	> 10.2	0.873	15.4	0.978	> 5	0.161	0.00296	0.595	1.14	0.954	> 2.56	0.937	> 10	0.65	0.81
YH-13 (glioma, adherent)	0.98	> 20	0.959	> 1.02	0.913	> 10	0.986	> 20	0.732	3.07	0.819	9.73	0.983	> 5	–	–	0.439	0.422	–	–	0.847	8.04	0.665	0.928

— the supplement of paper PMC4967469
